In all, about 290,000 compounds went through this assay and about 2,100 (0.72%) were called active. Inconclusive results, whose numbers are uncertain, are shown with a selection of clear calls. Calls come from the whole dose curve; as a rule, active = well fitted inhibition curve with a large enough effect; inconclusive = small, poorly fitted or top-dose-only effect, or effect the other way; inactive = flat fitted curve, though single readings scatter. A potency beside an inconclusive call is a rough fit, not a confirmed value.
molecular target: Fructose-bisphosphate aldolase (Giardia intestinalis (strain ATCC 50803 / WB clone C6)) (UniProt A8B2U2); assay: qHTS Assay for Inhibitors of Fructose-1,6-bisphosphate Aldolase from Giardia Lamblia; settings: purified Giardia FBPA; activity, negative = inhibition: at 59.6 µM (top of the series) unless noted; note: nearly all actives have a fitted effect of over 55% in size
How it was run: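 40 nM FBPA preincubated 10 min at RT with compound (up to 57.5 uM final), then substrate plus GAPDH/TPI/NAD/arsenate coupling and diaphorase/resazurin added. Fluorescence read after 20 min at RT, 525/598 nm.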
% is set by controls: 0 for no effect and ±100 for the full control effect; potency is the fitted concentration of half-maximal effect; tags give direction and shape of the fitted curve.

UniProt A8B2U2, sequence (A8B2U2 whole entry, looked up): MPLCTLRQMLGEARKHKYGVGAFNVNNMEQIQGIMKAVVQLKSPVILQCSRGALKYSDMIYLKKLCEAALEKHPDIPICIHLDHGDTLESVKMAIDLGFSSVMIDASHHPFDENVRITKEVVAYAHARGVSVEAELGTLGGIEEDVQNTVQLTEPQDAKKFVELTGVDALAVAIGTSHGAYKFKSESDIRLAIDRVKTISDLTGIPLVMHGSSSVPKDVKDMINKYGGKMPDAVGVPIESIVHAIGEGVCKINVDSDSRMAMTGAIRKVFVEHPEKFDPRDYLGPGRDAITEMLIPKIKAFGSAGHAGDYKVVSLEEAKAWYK

Row | Structure (SMILES) | Potency | activity, negative = inhibition
1 | CN1CCN(CC(=O)c2ccccc2F)CC1 | inconclusive: 15.8 µM [inhibitor, partial curve] | –
2 | O=C(c1cc(Sc2ccc(Cl)cc2)nc2ccccc12)N1CCN(c2ccccn2)CC1 | inactive | –
3 | Cc1cccc(OCCCN2CCOCC2)c1C | inconclusive: 28.2 µM [inhibitor, partial curve] | –
4 | CCOc1ccc(NCc2cc3cc(OC)ccc3[nH]c2=O)cc1 | inconclusive: 1.77 µM [inhibitor, full curve] | –
5 | O=c1[nH]c2ccccc2nc1/C=C(\O)C1CC1 | inactive | –
6 | Cc1ccc(C(=O)Nc2nnc(C3=COCCO3)o2)cc1C | active: 31.6 µM | –
7 | Brc1ccc(OCc2ccccc2)c(CNCc2ccncc2)c1 | inconclusive: 31.5 µM [inhibitor, single point] | –
8 | CCNS(=O)(=O)c1ccc(NC(=O)Nc2cccc(OC)c2)cc1 | inconclusive: 4.46 µM [activator, single point] | –
9 | CSc1sc(C(=O)NNC(C)=O)c2c1C=CCC2 | inconclusive: 17.7 µM [inhibitor, single point] | –
10 | CN1CCC2(CC1)N=C(c1ccc(F)cc1)C(=S)N2 | inconclusive: 15.8 µM [inhibitor, single point] | –
11 | COc1nc2ccc(C)cc2cc1-c1noc(-c2cccnc2)n1 | inactive | –
12 | OC(CN1CCOCC1)Cn1c2ccccc2c2ccccc21 (centres undefined) | inactive | –
13 | CC(=O)NC(=S)Nc1cccc2c(C)cc(C)nc12 | inconclusive: 15.8 µM [inhibitor, single point] | –
14 | Oc1ccc(C=Nc2cccc3ncccc23)c(O)c1 | inconclusive: 7.92 µM [inhibitor, full curve] | –
15 | COc1cc(NC(=O)Cc2nn(C)c(=O)c3ccccc23)cc(OC)c1OC | inactive | –
16 | Cc1ccc(-c2csc(NC(=O)c3ccc(Br)cc3)c2C(=O)O)cc1 | inconclusive: 17.8 µM [inhibitor, partial curve] | –
17 | CCc1cc(C(=O)NNC(=S)Nc2ccccc2C)cs1 | inactive | –
18 | O=C(CC1Sc2ncnn2C1=O)Nc1ccc(Cl)cc1 (centres undefined) | inconclusive: 14.1 µM [inhibitor, partial curve] | –
19 | CCOC(=O)CN(C(=O)CSc1nnc(-c2ccncc2)n1CCCN(C)C)c1ccccc1 | inconclusive: 31.5 µM [inhibitor, single point] | –
20 | COc1cccc(CNC(=O)c2ccc(C)c(NC3=NC4CS(=O)(=O)CC4S3)c2)c1 (centres undefined) | inconclusive: 22.4 µM [inhibitor, partial curve] | –
21 | O=C(O)CNS(=O)(=O)c1ccc2c3c(cccc13)C(=O)N2 | inconclusive: 25.1 µM [inhibitor, partial curve] | –
22 | COc1cccc(C(=O)Nc2cccc(NC(C)=O)c2)c1 | inconclusive: 17.7 µM [inhibitor, single point] | –
23 | Cc1ncc(C[n+]2csc(CCO)c2C)c(N)n1 | inconclusive: 7.94 µM [inhibitor, full curve] | –
24 | O=C(Nc1ccc2c(c1)OCCO2)c1cc(-c2ccccc2)nc2ccccc12 | inactive | –
25 | Cc1cc2c(N)cccc2nn1 | inconclusive: 0.561 µM [inhibitor, full curve] | –

Row | Structure (SMILES) | Potency | activity, negative = inhibition
26 | CC(=O)Nc1ccc(NC(=O)C(C)OC(=O)CNS(=O)(=O)c2cccc(Cl)c2)cc1 (centres undefined) | inactive | –
27 | CCOc1cc(NS(=O)(=O)c2ccc(Cl)cc2)c(OCC)cc1NC(=O)CC(C)C | inconclusive: 15.8 µM [inhibitor, single point] | –
28 | CC(C)(C)c1ccccc1OCCCCCn1ccnc1 | active: 17.7 µM | –
29 | O=C1C2CCCCN2C(=O)N1CCCCN1CCN(c2cccc(Cl)c2)CC1 (centres undefined) | inconclusive: 28.2 µM [inhibitor, single point] | –
30 | Cc1ccccc1NC(=O)CN1CCN(C)CC1 | active: 25.1 µM | –
31 | CCn1c(C)cc(=S)c2ccccc21 | inconclusive: 15.8 µM [inhibitor, partial curve] | –
32 | Cc1ccc(C(=O)Nc2ccc3c(c2)nc(CCNC(=O)c2ccco2)n3C)cc1 | inactive | –
33 | CCN(c1ccccc1)S(=O)(=O)c1ccc(Cl)c(NC(=O)COC(=O)C2CC2C)c1 (centres undefined) | inactive | –
34 | CCN(CC(=O)Nc1ccccc1SC)Cc1nc2ccccc2c(=O)[nH]1 | inconclusive: 3.54 µM [inhibitor, full curve] | –
35 | CCCC(=O)NC(c1ccco1)c1cc([N+](=O)[O-])c2cccnc2c1O (centres undefined) | active: 7.06 µM | –
36 | COC(=O)c1ccc(CSCc2ccc(C#N)cc2)cc1 | inactive | –
37 | Cc1cc(C)c2nc(-c3ccccn3)cc(C(=O)NCCc3ccc(S(N)(=O)=O)cc3)c2c1 | active: 17.7 µM | –
38 | CCCCSc1nc(C)cc(C)c1S(=O)(=O)c1ccccc1C | inactive | –
39 | CCOC(=O)C1=C(C)c2ccccc2N(C(=O)OC)C1(C)C(=O)OCC (centres undefined) | inconclusive: 19.9 µM [inhibitor, partial curve] | –
40 | COc1cccc2nc3cc(C)c(C)cc3nc12 | inconclusive: 9.98 µM [inhibitor, partial curve] | –
41 | CCC(=O)c1ccc2c(c1)OCCO2 | inactive | –
42 | Cc1ccc(S(=O)(=O)NC(Cc2cnc[nH]2)C(=O)O)cc1 (centres undefined) | inconclusive: 19.9 µM [inhibitor, partial curve] | –
43 | CC(C)C(=O)Nc1nnc(S(=O)(=O)N2CCCCCC2)s1 | inconclusive: 31.6 µM [inhibitor, single point] | –
44 | CCOc1cc(N2CCOCC2)c(OCC)cc1NC(=O)c1ccc(S(=O)(=O)N(C)C)cc1 | inconclusive: 17.7 µM [inhibitor, single point] | –
45 | COc1ccc(OCc2cc(C(=O)N(C)Cc3nccn3C)no2)c2ccccc12 | inconclusive: 15.8 µM [inhibitor, partial curve] | –
46 | O=C(Nc1cc(=O)[nH]c2ncnn12)c1ccc(Cl)cc1Cl | inconclusive: 5 µM [inhibitor, single point] | –
47 | CCOC(=O)CCN1C(=O)[C@H]2[C@H]3[C@H](O)[C@H](O)C/C(=N/O[C@@H]4O[C@@H](COC(C)=O)[C@@H](OC(C)=O)[C@@H](OC(C)=O)[C@H]4OC(C)=O)[C@H]3CC[C@@H]2C1=O | – | inactive: -0.503% [at 12.9 µM]
48 | O=C(O)C1CSC(c2cccnc2)N1 (centres undefined) | inconclusive: 17.7 µM [inhibitor, partial curve] | –
49 | O=C(NCCN1CCOCC1)c1ccccc1N1C(=O)[C@@H]2Cc3c([nH]c4ccccc34)C(c3ccc(F)cc3)N2C1=O (some centres undefined) | inconclusive: 22.4 µM [inhibitor, single point] | –
50 | CCC1(C)Cc2c(sc3[nH]c(=S)n(Cc4ccccc4)c(=O)c23)CO1 (centres undefined) | inconclusive: 17.7 µM [activator, single point] | –

Row | Structure (SMILES) | Potency | activity, negative = inhibition
51 | COc1ccc2[nH]c(=O)c(CN(CC3CCCO3)C(=S)Nc3cccc(C)c3)cc2c1 (centres undefined) | inconclusive: 15.8 µM [inhibitor, partial curve] | –
52 | OCCN1CCN(C(=S)Nc2ccccc2)CC1 | inconclusive: 17.7 µM [inhibitor, single point] | –
53 | O=C(O)c1ccc(-c2ccc(Cl)cc2Cl)o1 | inconclusive: 17.7 µM [activator, single point] | –
54 | O=C(N/N=C/c1cccs1)c1cc(-c2ccncc2)nc2ccccc12 | inactive | –
55 | COC(=O)c1[nH]c2ccc(C)cc2c1NC(=O)CN1CCN(c2ccccc2)CC1 | inactive | –
56 | CN(C)c1ccc(NC(=O)CN2CCC(N3CCCCC3)CC2)cc1 | inconclusive: 31.5 µM [inhibitor, single point] | –
57 | CCOc1ccc(NC(=S)Nc2ccc3nsnc3c2)cc1 | inconclusive: 0.5 µM [inhibitor, full curve] | –
58 | O=C(Nc1cccc(O)c1)c1ccc(Br)cc1 | inactive | –
59 | COc1ccccc1N1CCN(CC(=O)c2ccc(F)cc2)CC1 | active: 15.8 µM | –
60 | CC(NCC1COc2ccccc2O1)C1COc2ccccc2O1 (centres undefined) | inconclusive: 15.8 µM [inhibitor, partial curve] | –
61 | COC(=O)C1=C(C)NC(=O)/C1=C\c1cc(C)n(-c2c(C)cccc2C)c1C | inconclusive: 15.8 µM [inhibitor, single point] | –
62 | COCCNCCCCSc1ccc(Cl)cc1 | inconclusive: 17.7 µM [inhibitor, partial curve] | –
63 | CC(C)CN1CCC(C(=O)NCC2CCCO2)CC1 (centres undefined) | inconclusive: 22.3 µM [inhibitor, partial curve] | –
64 | COc1ccc(CNC(=O)[C@@H](NC(=O)C2CCN(C(=O)[C@@H](N)CCSC)CC2)C(C)C)cc1 | inconclusive: 11.2 µM [inhibitor, partial curve] | –
65 | Cc1ccc(C)c(NC(=O)c2cccc(Oc3ccc([N+](=O)[O-])cc3Cl)c2)c1 | inactive | –
66 | CCOC(=O)C1CCCN(C(=O)c2ccc(Cl)cc2)C1 (centres undefined) | inactive | –
67 | COc1cc2c(C#N)c(N3CCN(c4ccccc4OC)CC3)nc(N)c2c(N)n1 | inconclusive: 5.61 µM [inhibitor, single point] | –
68 | O=C(NCCCCNC(=O)c1ccc(Br)s1)c1ccc(Br)s1 | inactive | –
69 | O=C(O/N=C1/CCCc2occc21)c1ccc(Cl)cc1Cl | inactive | –
70 | O=C(C1CCCN(Cc2ccc([N+](=O)[O-])cc2)C1)N1CCCCC1 (centres undefined) | inconclusive: 14.1 µM [inhibitor, partial curve] | –
71 | O=C1C2CC=CCC2C(=O)N1c1ccc(NCCc2ccc(O)cc2)c([N+](=O)[O-])c1 (centres undefined) | inactive | –
72 | COc1ccc(-c2ccnc3[nH]n(-c4ccccc4)c(=O)c23)cc1 | inconclusive: 28.2 µM [inhibitor, single point] | –
73 | COc1cc(NC(=S)N2CCN(C)CC2)c(OC)cc1Cl | inconclusive: 22.3 µM [inhibitor, single point] | –
74 | C=CCOc1c(CNc2cccc(C(=O)O)c2)cccc1OC | inconclusive: 17.7 µM [activator, single point] | –
